B1: tRNA (parent)
chain: CUCUCGGUAGCCAAGUUGGUUUAAGGCGCAAGACUUUAAUUUAUCACUACGAAAUCUUGAGAUCGGGCGUUCGACUCGCCCCCGGGAGAUUUUUUCCUCGAGCAA

Variants at the floor of the assay are shown more often than the library holds them. Bounds are passed on as bounds.

In this series the parent is B1. In words: nonsense suppression (GFP-seq) (ratio to wild type); higher = more function; SUP4oc tRNA, yeast GFP reporter sort-seq. Put shortly: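 Yeast were grown in raffinose/galactose medium with 80 mg/L adenine, each strain bearing a genome-integrated ochre-suppressor tRNA variant from a ~3% random-mutation library, a galactose-driven GFP ochre reporter, and RFP. After sorting into GFP/RFP bins, every bin was sequenced on an Illumina platform at phred ≥30. The GFPSEQ value, a measure of nonsense suppression, is the weighted bin median GFP/RFP relative to the unmutated parent tRNA, using each variant's estimated cell share per bin as the weight. Only variants with ≥100 reads and ≥30 cells were included.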
Regarding G32A G88U, the nonsense suppression is at most 0.026.
As for G10A U63C, the nonsense suppression was at most 0.026.
On to C56A G59A, for which the nonsense suppression is at most 0.026.
Next, U57A G67C A87C: at most 0.026; G65C C80A C82A: at most 0.026.
Next, A30C C80G: at most 0.026; G28C A33U C79U: at most 0.026.
G15C U21C C64G G78A: the nonsense suppression is at most 0.026.
The same measure for U16C U17G: 1.07.
Next, A33G U55A U70C C80G: at most 0.026; C79A G84C: at most 0.026.
Next, A13C G78U A89U: at most 0.026; G6U U16A A23G: at most 0.026.
Consider A60C A74C C75A, for which the nonsense suppression was at most 0.026.
Consider G19C U22G A33G, for which the nonsense suppression was at most 0.026.
In the case of C1A A31G G86A, the nonsense suppression is at most 0.026.
For the variant C3A A33U A87C, the nonsense suppression is at most 0.026.
With C5U A13C, the nonsense suppression was determined as 0.0679.
As to C1U A14G U22C C27G A30U, the nonsense suppression was at most 0.026.
Next, U22G G26A G32U A54G G84C: at most 0.026; U17G G32U U55A U57C U76C: at most 0.026; C1A A54G A62U: at most 0.026.
The same measure for A54C U55A G65C: at most 0.026; for U2C G84A: at most 0.026.
Next, A30U G67A G73U A74G C81A: at most 0.026; C5G C12U G19C: at most 0.026.
On to G10C C27U, for which the nonsense suppression is at most 0.026.
The same measure for U4A A14G: 0.0942; for A30G U35C U55G G67C G85A: at most 0.026; for U22C A23U G84U: at most 0.026.
Next, A54C U57A: 0.0382; A14U G25A A30U G86U: at most 0.026; G19A C64U A74U: at most 0.026.
C5U U17A G73U: the nonsense suppression was at most 0.026.
In the case of G61A C68U, the nonsense suppression is 0.609.
Next, A54G U58A C64A C72A A89C: at most 0.026.
Next, U2G U4C C27U C81G C83G: at most 0.026; C5U U22C C27U C34U: at most 0.026.
The same measure for C27A: at most 0.026; for G7C G73C C82G: at most 0.026; for U22G A54G G73A: at most 0.026.
Consider A33G A54U G67U U71C G73U, for which the nonsense suppression was at most 0.026.
As for A33C G86U, the nonsense suppression is at most 0.026.
The same measure for G19U G65A: at most 0.026.
On to C56U U58G G88A, for which the nonsense suppression is at most 0.026.
With G18A C64G C77A, the nonsense suppression was at most 0.026.
The same measure for A33C C81A: at most 0.026; for G78U C82G: at most 0.026; for A9U C11U A33G: at most 0.026.
Next, G19A C34U U71A: at most 0.026.
Next, C1A G26U G65U C80G: at most 0.026.
As to U8C A13G G85U, the nonsense suppression is at most 0.026.
Next, C3G A14U G18U: at most 0.026; A14C A30C U58G G59A C80G C81A: at most 0.026.
The same measure for C1G C64U C79G: at most 0.026; for U70G A74C: at most 0.026; for G6C C81U: at most 0.026.
The same measure for G15C G61C U63G: at most 0.026.
On to C34G C77A, for which the nonsense suppression was at most 0.026.
The same measure for C12U A24C G26U A74C U76C: at most 0.026; for G6C U58G C80A: at most 0.026.
The same measure for U55G C75A G86A: at most 0.026; for A9G C12U A33U: at most 0.026; for G19A G28U: at most 0.026.
Take G69A A87C: the nonsense suppression was at most 0.026.
Next, U20A C29A: at most 0.026; U4C U21C G67A: 0.0868.
In the case of C1G A13U U16A G19U C56A C82A, the nonsense suppression is at most 0.026.
As for A54U U55G, the nonsense suppression is at most 0.026.
Regarding A33G A62G G65A G73C, the nonsense suppression is at most 0.026.
Next, C11G G73C U76G: at most 0.026; U20A A33C A89U: at most 0.026.
Next, A23C C81G G84A: at most 0.026.
Take C1U U8C A31G U35C: the nonsense suppression is at most 0.026.
The same measure for A13G C34U G61U C80G: at most 0.026.
The same measure for G6U C27U G69U: at most 0.026.
On to U4G C56U G88U, for which the nonsense suppression is at most 0.026.
The same measure for C1G G88C: at most 0.026; for A24C A30C C34G: at most 0.026.
The same measure for U2G C3U G19A G66A: at most 0.026.
Next, C11G U71G C83G A87G G88A: at most 0.026.
U4G U22A C34G: the nonsense suppression was at most 0.026.
Turning to G25C C82U, the nonsense suppression is at most 0.026.
The same measure for U4G G73C: 0.0291.
The same measure for C3G C11U A31C G73C A74G G78A: at most 0.026; for G15C G32A A33U U70A: at most 0.026.
On to G7U C27U C77A C83U G88U, for which the nonsense suppression was at most 0.026.
Next, C64U G88A: at most 0.026.
The same measure for G10U C12U U21A A31G U58G: at most 0.026; for A33G C79A: at most 0.026; for C11U U63C: at most 0.026.
With A24C A31G A62C U71C, the nonsense suppression is at most 0.026.
Take C3A A9U U17C U20C G32A: the nonsense suppression was at most 0.026.
As to G7C U17A A23C, the nonsense suppression was at most 0.026.
The same measure for G32A G85C: at most 0.026.
Regarding A13G C82A, the nonsense suppression was at most 0.026.
Next, U4G A13G G26U C27U G78C C82A: at most 0.026; A30U A62C G65A U76G C82A A89G: at most 0.026; C29A A31C A62G G69U A87C: at most 0.026.
For the variant A13C G61A G84C, the nonsense suppression is at most 0.026.
The same measure for C3G C11G G67U: at most 0.026; for G7U G10A A62C: at most 0.026.
As to C1U C27G G65A, the nonsense suppression was at most 0.026.
Regarding G10C G88A, the nonsense suppression is at most 0.026.
In the case of G25A G86A, the nonsense suppression was at most 0.026.
C1U G18U U21A G26U: the nonsense suppression was at most 0.026.
Next, G26A G59A: at most 0.026; A13U G18C G19U: at most 0.026.
For U58G C75A U76G, the nonsense suppression is at most 0.026.
The same measure for U22G A24C G86C: at most 0.026; for G10C A14G: at most 0.026.
The same measure for G88U: at most 0.026; for A23G A31C G59U: at most 0.026; for A9C U57G C82U: at most 0.026.
In the case of U2A G15A, the nonsense suppression was at most 0.026.
Next, U4C U71A: at most 0.026.
Turning to A23U U58C G65A G67A G78A, the nonsense suppression is at most 0.026.
With G6U A60G C81G, the nonsense suppression was at most 0.026.
Next, A9C U20G G65U C82A: at most 0.026; C27U U58C C82U: at most 0.026; C3A G19A: at most 0.026.
As for U21A A33C, the nonsense suppression is at most 0.026.
As to C3G C83A, the nonsense suppression is at most 0.026.
Turning to A23G G65A, the nonsense suppression is at most 0.026.
The same measure for A24U C27U: at most 0.026; for U22G A33C: at most 0.026.
As for G15C U21A U35G, the nonsense suppression was at most 0.026.
For the variant G10U C56U A74U, the nonsense suppression is at most 0.026.
As to C72U A74U, the nonsense suppression is at most 0.026.
Next, G19C A30G: at most 0.026; C12A G18C A54C G73C: at most 0.026.
The same measure for G25C A54U: 0.0708; for G6C G73A C82U: at most 0.026.
On to G10A U57G G61A G66U, for which the nonsense suppression was at most 0.026.
In the case of U70A C75A A89C, the nonsense suppression is at most 0.026.
C3G C5G C11A G59C: the nonsense suppression was at most 0.026.
On to C1G C80G, for which the nonsense suppression was at most 0.026.
Next, C12G A54C C72G: at most 0.026.
The same measure for G59A G66C: at most 0.026.
Next, G18C U57G A87C: at most 0.026; U55C U58G: at most 0.026.
In the case of A33G U55A, the nonsense suppression was at most 0.026.
In the case of A60C G67C G84A, the nonsense suppression is at most 0.026.
Next, G10U G84A G86U: at most 0.026; G73C G84U: at most 0.026.
Regarding C3A U20A G28A, the nonsense suppression is at most 0.026.
Next, G26C U35G: at most 0.026; C12U U55C: 0.0665; C3A G25C U63A: at most 0.026.
The same measure for A24U G28A A33U U57A G69U: at most 0.026; for U17G G61A C64U: at most 0.026; for U8A C12U G26U A33G G59A: at most 0.026.
The same measure for A14C U20C G67U: at most 0.026; for U17C G61C: 0.769; for U20C C34G A54G G88C: at most 0.026.
Regarding C1U A31G, the nonsense suppression is at most 0.026.
On to C56A U70A A89U, for which the nonsense suppression was at most 0.026.
For C27A A89U, the nonsense suppression is at most 0.026.
Turning to C5U A30C A31U, the nonsense suppression was at most 0.026.
The same measure for C3U A13G C34G G59A G67A G78C: at most 0.026.
On to C12U G32A G66C, for which the nonsense suppression was at most 0.026.
Next, U4A G73A: at most 0.026; C5G U16G A89G: at most 0.026.
Next, G18C C56G U57G C72U: at most 0.026; U4G G69C G78A: at most 0.026.
The same measure for G19U A89G: at most 0.026; for G10A G15C A24U A54U A87U: at most 0.026.

Values taken from the RNAGym collection of RNA variant scans (doi:10.1101/gad.245936.114).
